PubChem BioAssay AID504332 (National Center for Advancing Translational Sciences (NCATS), 2011)
The campaign covered roughly 350,000 compounds. About 31,000 (8.9%) were called active. Inconclusive results, whose numbers are uncertain, are shown with a selection of clear calls. Calls come from the whole dose curve; as a rule, active = well fitted inhibition curve with a large enough effect; inconclusive = small, poorly fitted or top-dose-only effect; inactive = no such curve, though single readings can be large or run the other way. Where the call is inconclusive, the potency comes from a doubtful curve fit.

The molecules below were run against Histone-lysine N-methyltransferase EHMT2 (Homo sapiens) (UniProt Q96KQ7) (assay: qHTS Assay for Inhibitors of Histone Lysine Methyltransferase G9a). Settings: G9a H3K9 monomethylation, AlphaScreen, 2 h; activity, negative = inhibition: at 59 µM (top of the series) unless noted.
UniProt Q96KQ7, sequence (Q96KQ7 whole entry, looked up): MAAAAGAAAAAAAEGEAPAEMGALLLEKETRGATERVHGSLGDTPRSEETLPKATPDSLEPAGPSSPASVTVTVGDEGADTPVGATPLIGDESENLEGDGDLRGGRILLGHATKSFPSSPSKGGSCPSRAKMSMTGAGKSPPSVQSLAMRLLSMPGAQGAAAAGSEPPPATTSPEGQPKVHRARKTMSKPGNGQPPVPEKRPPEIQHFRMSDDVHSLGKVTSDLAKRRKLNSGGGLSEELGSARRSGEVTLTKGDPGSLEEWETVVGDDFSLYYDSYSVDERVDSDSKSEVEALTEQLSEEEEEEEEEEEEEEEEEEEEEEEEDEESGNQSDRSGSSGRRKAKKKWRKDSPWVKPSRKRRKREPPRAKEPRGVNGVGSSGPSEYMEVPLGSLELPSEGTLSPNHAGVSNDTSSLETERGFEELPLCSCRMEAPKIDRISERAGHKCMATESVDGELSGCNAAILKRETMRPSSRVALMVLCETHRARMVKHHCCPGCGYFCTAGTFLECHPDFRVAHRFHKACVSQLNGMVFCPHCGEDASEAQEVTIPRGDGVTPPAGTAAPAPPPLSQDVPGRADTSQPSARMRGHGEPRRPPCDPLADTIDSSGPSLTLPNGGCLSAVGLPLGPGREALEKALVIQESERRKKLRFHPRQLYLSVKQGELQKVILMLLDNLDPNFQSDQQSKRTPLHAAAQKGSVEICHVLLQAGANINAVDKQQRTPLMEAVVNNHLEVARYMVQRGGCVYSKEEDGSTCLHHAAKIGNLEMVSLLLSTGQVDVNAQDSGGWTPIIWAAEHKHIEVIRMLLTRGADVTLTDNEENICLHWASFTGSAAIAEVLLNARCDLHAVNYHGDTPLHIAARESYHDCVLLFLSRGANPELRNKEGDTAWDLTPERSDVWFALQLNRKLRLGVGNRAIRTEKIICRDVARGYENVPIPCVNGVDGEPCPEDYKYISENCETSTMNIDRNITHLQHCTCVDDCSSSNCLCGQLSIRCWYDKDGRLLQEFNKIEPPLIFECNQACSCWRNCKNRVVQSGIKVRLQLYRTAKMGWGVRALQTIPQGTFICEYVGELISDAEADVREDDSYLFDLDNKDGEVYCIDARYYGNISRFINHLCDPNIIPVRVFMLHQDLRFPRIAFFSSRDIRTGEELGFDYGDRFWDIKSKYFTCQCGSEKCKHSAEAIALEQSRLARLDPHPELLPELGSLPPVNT
Procedure, shortened: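 Enzyme 20 nM + cpd, 15 min RT; add b-H3K9 pep 500 nM / SAM 20 uM; 2 h RT; anti-H3K9me1 Ab 0.5 ug/mL + SA donor / anti-rabbit acceptor beads 20 ug/mL each, 10 min; AlphaScreen read.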
% is set by controls: 0 for no effect and ±100 for the full control effect; potency is the fitted concentration of half-maximal effect; tags give direction and shape of the fitted curve.
Note: nearly all actives have a fitted effect of over 75% in size.

| SMILES | Potency | activity, negative = inhibition |
| --- | --- | --- |
| COc1ccc2nc(N(Cc3ccccc3)C(=O)CCNC(C)=O)sc2c1 | active: 31.6 µM | – |
| NS(=O)(=O)c1ccc(Nc2nc(-c3ccc(F)cc3)cs2)cc1 | inconclusive: 50.1 µM [inhibitor, partial curve] | – |
| CC(C)c1nc(NCCO)c2nnn(Cc3ccccc3)c2n1 | – | inactive: 12.9% [at 0.501 µM] |
| COC(=O)CSc1[nH]c2ccc(Br)cc2c1[N+](=O)[O-] | inconclusive: 89.1 µM [inhibitor, single point] | – |
| Cc1cc(NC(=O)CCC(=O)N(CC(=O)NC2CCCC2)Cc2cccs2)no1 | inconclusive: 17.8 µM [inhibitor, partial curve, poor fit] | – |
| Cc1cc(C)cc(OCCSc2nc3ccc(NC(=O)c4cccs4)cc3s2)c1 | inactive | – |
| C=CCn1c(C(CCCC)CC(C)O)n[nH]c1=S (stereo not given) | inconclusive: 22.4 µM [inhibitor, partial curve, poor fit] | – |
| NNC(=O)Cn1nnc(-c2ccc(C(F)(F)F)cc2)n1 | inactive | – |
| O=C(OCc1ccc(O)cc1)c1c(-c2ccsc2)oc2ccc(N3CCOCC3)cc12 | inconclusive: 89.1 µM [inhibitor, single point] | – |
| Fc1ccc(/C=C2\CCCC3=C2Nc2ncnn2C3c2ccc(F)cc2)cc1 (stereo not given) | – | inconclusive: -66.8% [inhibitor] |
| COc1ccc(OC)c(S(=O)(=O)N2CCCCC2C(=O)O)c1 (stereo not given) | inconclusive: 100 µM [inhibitor, single point] | – |
| CC1CCC/C(=C\Nc2ccc(O)cc2)C1=O (stereo not given) | inconclusive: 1.78 µM [inhibitor, full curve, poor fit] | – |
| O=c1c2ccccc2n2c(=S)[nH]nc2n1-c1ccccc1 | active: 5.01 µM | – |
| O=C(NCCN1CCOCC1)/C(=C\c1ccc(F)cc1)NC(=O)c1ccccc1 | inactive | – |
| CCOC(=O)C1C(=O)NC(N2CCN(CC)CC2)=NC1c1ccccc1 (stereo not given) | – | inconclusive: -80.9% [inhibitor] |
| CC(C)CN(C(=O)Cn1c(Cl)nc2c1c(=O)n(C)c(=O)n2C)C1CCS(=O)(=O)C1 (stereo not given) | inactive | – |
| CCN(CC)CCCOC(=O)C(c1ccccc1)c1ccccc1 | inconclusive: 50.1 µM [inhibitor, partial curve] | – |
| CC(C)N(CC#CCC1(O)c2ccccc2-c2ccccc21)CCO | – | inconclusive: -107% [inhibitor] [at 12.7 µM] |
| CC(C(=O)N(C)C1CCS(=O)(=O)C1)N1C(=O)/C(=C/c2ccc(F)cc2)SC1=S (stereo not given) | inconclusive: 31.6 µM [inhibitor, partial curve, poor fit] | – |
| O=C1CCCC(O)=C1N=Nc1ccc(S(=O)(=O)N2CCOCC2)cc1 | inconclusive: 22.4 µM [inhibitor, partial curve, poor fit] | – |
| CCOC(=O)c1ccc(S(=O)(=O)Nc2cc(C(C)(C)C)no2)cc1 | inconclusive: 2.24 µM [inhibitor, partial curve, poor fit] | – |
| COCCNc1c(-c2ccc(OC)c(OC)c2)nc2ccc(Cl)cn12 | inconclusive: 44.7 µM [inhibitor, partial curve, poor fit] | – |
| CCn1c(=S)[nH]c2ccccc21 | active: 2.82 µM | – |

| SMILES | Potency | activity, negative = inhibition |
| --- | --- | --- |
| COC(=O)c1ccc(C2c3[nH]c4ccccc4c3C[C@H]3C(=O)N(C)CC(=O)N23)cc1 (stereo not given in full) | inconclusive: 89.1 µM [inhibitor, single point] | – |
| O=C(NC1CCCCC1)C(c1ccncc1)N(Cc1ccccc1)C(=O)c1ccc(-c2ccccc2)[nH]1 (stereo not given) | – | inactive: 27.8% [at 0.501 µM] |
| Cc1ccc(C)c(S(=O)(=O)c2c(N)n(/N=C/c3ccco3)c3nc4ccccc4nc23)c1 | active: 50.1 µM | – |
| O=S(=O)(c1ccccc1)N1CCC2(CC1)CN(c1ncccn1)C2 | – | inactive: 4.66% [at 12.7 µM] |
| O=C1c2ccccc2-c2onc3c(N4CCN(C5CCCCC5)CC4)cc(NCCO)c1c23 | inactive | – |
| C/C(=N\Nc1ccc(S(=O)(=O)N2CCOCC2)cc1[N+](=O)[O-])C(C)C | inconclusive: 50.1 µM [inhibitor, partial curve, poor fit] | – |
| CCc1ccc2oc(C(=O)N(Cc3ccc(N(C)C)cc3)Cc3ccco3)c(C)c2c1 | active: 10 µM | – |
| CC(CCc1ccccc1)NC(=O)Cn1c(=O)nc(-c2ccccc2)c2cc(Cl)ccc21 (stereo not given) | – | inactive: 2.12% [at 12.7 µM] |
| COCCn1c(CN(Cc2ccccc2)Cc2ccccc2)nc2c1c(=O)n(C)c(=O)n2C | inconclusive: 89.1 µM [inhibitor, single point] | – |
| CC1=NN(C(N)=S)C(=O)C1N=Nc1cccc([N+](=O)[O-])c1 (stereo not given) | inactive | – |
| COc1ccccc1-n1c(=S)sc2c(=O)n(Cc3ccco3)c(SC)nc21 | active: 12.6 µM | – |
| COc1ccc(S(=O)(=O)NNC(=O)C23CC4CC(CC(C4)C2)C3)cc1[N+](=O)[O-] | inconclusive: 89.1 µM [inhibitor, partial curve, poor fit] | – |
| COC(=O)C1=C2SC(C)C(=O)N2C(N)=C(C#N)C1c1cc(OC)c(OC)c(OC)c1 (stereo not given) | inconclusive: 28.2 µM [inhibitor, single point] | – |
| COc1ccc(N=Cc2c(O)ccc3ccccc23)cc1 | active: 0.794 µM | – |
| CC(=O)Nc1ccc(C2=NNC(=NCC3CCCO3)SC2)cc1 (stereo not given) | active: 14.1 µM | – |
| COc1ccccc1NC(=O)CSc1ncc2c(n1)-c1ccccc1N(Cc1ccccc1C)S2(=O)=O | inactive | – |
| CCN(C(=S)Nc1cccc(C)c1)c1ccccc1 | inconclusive: 89.1 µM [inhibitor, single point] | – |
| CCn1c2ccccc2c2cc(/C=N/n3c(C)nnc3C)ccc21 | – | inactive: 22.9% [at 12.7 µM] |
| CCOc1ccc(-n2c(=S)sc3c(=O)[nH]c(SCC(=O)NCc4ccco4)nc32)cc1 | active: 39.8 µM | – |
| O=C(CSc1nnc(-c2ccc3c(c2)OCO3)o1)Oc1ccccc1 | inconclusive: 39.8 µM [inhibitor, partial curve, poor fit] | – |
| O=C(COC(=O)c1cc(-c2cccs2)nc2ccccc12)c1ccc(F)cc1 | inactive | – |
| CC1CCN(Cc2nc(Cl)c3c4c(sc3n2)CCC4)CC1 | inconclusive: 11.2 µM [inhibitor, full curve] | – |
